For one assay, the system named is HSkMC. Kind of assay: cytotoxicity call (relative viability < 0.9). The conditions noted are these: 10 µM.
The next assay relates to S. aureus RN4220. Kind of assay: growth inhibition call (relative growth <= 0.2). The conditions noted are these: 50 µM.

Some of the results follow.

With `COc1ccc(NC(C)=S)cc1C`, the cytotoxicity call in the assay on HSkMC was “inactive”. Besides, the growth inhibition call with S. aureus RN4220 was “inactive”.
Turning to `COc1ccc(CN(C)C[C@H]2OCCCC[C@@H](C)Oc3ccc(NC(=O)Nc4ccc(F)cc4)cc3C(=O)N([C@@H](C)CO)C[C@H]2C)cc1`, in the assay with HSkMC, the cytotoxicity call was “inactive”. In addition, the growth inhibition call with S. aureus RN4220 is “inactive”.
Take `C[C@H](CO)N1C[C@H](C)[C@H](CN(C)C(=O)Nc2ccnc(N3CCOCC3)c2)OCc2cnnn2CCCC1=O`: the cytotoxicity call with HSkMC was “inactive”. Also, the growth inhibition call in the assay on S. aureus RN4220 was “inactive”.
As to `COC(=O)N[C@H](C(=O)N1CC2(CC2)C[C@H]1c1nc(-c2ccc3c(c2)C(F)(F)c2cc(-c4ccc5nc([C@@H]6[C@H]7CC[C@H](C7)N6C(=O)[C@@H](NC(=O)OC)C(C)C)[nH]c5c4)ccc2-3)c[nH]1)C(C)C`, the cytotoxicity call with HSkMC was “inactive”. Moreover, in the assay on S. aureus RN4220, the growth inhibition call is “inactive”.
As for `C[C@H]1CN([C@@H](C)CO)C(=O)Cc2cc(NC(=O)Nc3cccc4ccccc34)ccc2O[C@H]1CN(C)C(=O)Nc1ccc(F)cc1`, the cytotoxicity call in the assay with HSkMC is “inactive”. In addition, in the assay with S. aureus RN4220, the growth inhibition call was “inactive”.
Turning to `C[C@@H]1CN([C@@H](C)CO)C(=O)Cc2cc(NC(=O)Nc3cccc4ccccc34)ccc2O[C@H]1CN(C)Cc1ccc(C(F)(F)F)cc1`, the cytotoxicity call in the assay on HSkMC was “inactive”. The growth inhibition call in the assay with S. aureus RN4220 is “inactive”.
Consider `C[C@@H]1CN([C@H](C)CO)C(=O)c2cc(NS(C)(=O)=O)ccc2O[C@@H]1CN(C)C(=O)Nc1ccccc1`, for which the cytotoxicity call with HSkMC is “inactive”. For the same compound, the growth inhibition call in the assay with S. aureus RN4220 was “inactive”.
For the compound `COc1ccc(S(=O)(=O)Nc2cccc3c2O[C@H](CN(C)C(=O)Nc2c(C)noc2C)[C@H](C)CN([C@H](C)CO)C3=O)cc1`, the cytotoxicity call with HSkMC is “inactive”. Also, the growth inhibition call in the assay with S. aureus RN4220 was “inactive”.
For `CN(Cc1ccc(C(C)(C)C)cc1)Cc1cccc2ccccc12`, the cytotoxicity call in the assay on HSkMC was “inactive”. In addition, the growth inhibition call in the assay with S. aureus RN4220 is “inactive”.
As to `C[C@H]1CN([C@@H](C)CO)C(=O)c2cccc(NS(=O)(=O)c3ccccc3)c2O[C@H]1CN(C)Cc1ccc(Oc2ccccc2)cc1`, in the assay with HSkMC, the cytotoxicity call is “inactive”. Also, the growth inhibition call with S. aureus RN4220 was “inactive”.
With `Cc1noc(C)c1S(=O)(=O)Nc1ccc2c(c1)CC(=O)N([C@H](C)CO)C[C@@H](C)[C@@H](CN(C)Cc1ccc(Oc3ccccc3)cc1)O2`, the cytotoxicity call in the assay with HSkMC was “inactive”. Further, in the assay with S. aureus RN4220, the growth inhibition call is “inactive”.
As for `CCOc1cc(OCC)cc(C(=O)N[C@@H](Cc2ccc(-n3cc(CCC(=O)NO)nn3)cc2)C(=O)OC)c1`, the cytotoxicity call in the assay with HSkMC was “inactive”. For the same compound, the growth inhibition call in the assay on S. aureus RN4220 is “inactive”.
Regarding `COCC(=O)N1CC[C@@H]2N(S(C)(=O)=O)CC[C@@]2(C(=O)N2CCOCC2)CC1`, the cytotoxicity call in the assay with HSkMC was “inactive”. For the same compound, the growth inhibition call in the assay with S. aureus RN4220 is “inactive”.
For `CC(C)NC(=O)Nc1ccc2c(c1)CC(=O)N([C@@H](C)CO)C[C@@H](C)[C@H](CN(C)S(=O)(=O)c1ccc(Cl)cc1)O2`, in the assay with HSkMC, the cytotoxicity call is “inactive”. Moreover, the growth inhibition call in the assay with S. aureus RN4220 was “inactive”.
For `Cc1ccc(S(=O)(=O)N(C)C[C@H]2Oc3c(NC(=O)C4CCOCC4)cccc3C(=O)N([C@@H](C)CO)C[C@H]2C)cc1`, in the assay with HSkMC, the cytotoxicity call was “inactive”. In addition, in the assay with S. aureus RN4220, the growth inhibition call is “inactive”.
Regarding `C[C@@H]1CN([C@@H](C)CO)C(=O)c2cc(NC(=O)CCCN(C)C)ccc2O[C@H]1CN(C)Cc1ccncc1`, the cytotoxicity call in the assay on HSkMC is “inactive”. Moreover, the growth inhibition call in the assay with S. aureus RN4220 is “inactive”.
For the compound `C=CC1=C(C(=O)O)N2C(=O)[C@@H](NC(=O)/C(=N\OCC(=O)O)c3csc(N)n3)[C@H]2SC1`, in the assay on HSkMC, the cytotoxicity call is “inactive”. For the same compound, the growth inhibition call with S. aureus RN4220 was “active”.
In the same order, the values of `O=C(NCCCn1ccnc1)C(=O)NC[C@H]1OCCN1S(=O)(=O)c1ccc(F)cc1` are “inactive” and “inactive”.
Take `C[C@@H]1CN([C@@H](C)CO)C(=O)c2cc(NC(=O)CCCCCC(=O)Nc3ccccc3N)ccc2O[C@@H]1CN(C)C(=O)Nc1ccc(C(F)(F)F)cc1`: the cytotoxicity call with HSkMC is “inactive”. Further, the growth inhibition call with S. aureus RN4220 is “inactive”.
As to `C[C@H]1CN([C@@H](C)CO)C(=O)Cc2cc(NS(=O)(=O)c3ccc(Cl)cc3)ccc2O[C@H]1CN(C)C(=O)Nc1cccc2ccccc12`, the cytotoxicity call in the assay on HSkMC is “inactive”. Also, the growth inhibition call in the assay on S. aureus RN4220 is “inactive”.
Turning to `COc1ccc(S(=O)(=O)N(C)C[C@H]2Oc3ccc(NC(=O)NC(C)C)cc3CC(=O)N([C@@H](C)CO)C[C@H]2C)cc1`, the cytotoxicity call with HSkMC is “inactive”. Besides, in the assay with S. aureus RN4220, the growth inhibition call is “inactive”.
Regarding `COc1cccc(CN(C)C[C@@H]2OCc3ccccc3-c3c(n(C)c4ccccc34)C(=O)N([C@H](C)CO)C[C@@H]2C)c1`, the cytotoxicity call in the assay with HSkMC was “inactive”. Also, the growth inhibition call in the assay on S. aureus RN4220 was “inactive”.
As to `C[C@@H]1CN([C@@H](C)CO)C(=O)c2cc(NC(=O)Nc3cccc4ccccc34)ccc2O[C@H]1CN(C)S(=O)(=O)c1ccc(Cl)cc1`, the cytotoxicity call in the assay on HSkMC is “inactive”. Besides, the growth inhibition call in the assay with S. aureus RN4220 is “inactive”.
Regarding `C[C@H]1CN([C@@H](C)CO)C(=O)c2cccc(NC(=O)C3CCOCC3)c2O[C@@H]1CN(C)S(=O)(=O)c1ccc(F)cc1`, the cytotoxicity call in the assay with HSkMC was “inactive”. Moreover, the growth inhibition call in the assay with S. aureus RN4220 was “inactive”.
On to `C[C@H](CO)N1C[C@H](C)[C@@H](CN(C)S(=O)(=O)c2cn(C)cn2)Oc2ccc(NS(=O)(=O)c3cn(C)cn3)cc2CC1=O`, for which the cytotoxicity call in the assay with HSkMC was “inactive”. In addition, the growth inhibition call in the assay on S. aureus RN4220 is “inactive”.
Take `CC(C)N1C[C@H](C)[C@@H](CN(C)Cc2ccc(Oc3ccccc3)cc2)Oc2c(cccc2-c2nnc(-c3ccncc3)o2)C1=O`: the cytotoxicity call with HSkMC was “inactive”. Further, the growth inhibition call in the assay on S. aureus RN4220 was “inactive”.
With `CC(C)NC(=O)N(C)C[C@@H]1Oc2c(NS(=O)(=O)c3cccs3)cccc2C(=O)N([C@@H](C)CO)C[C@@H]1C`, the cytotoxicity call in the assay with HSkMC was “inactive”. Further, the growth inhibition call in the assay on S. aureus RN4220 is “inactive”.
On to `C[C@@H]1CN([C@H](C)CO)C(=O)c2cc(NC(=O)CCCN(C)C)ccc2O[C@@H](C)CCCCO[C@H]1CN(C)S(=O)(=O)c1cn(C)cn1`, for which, in the assay on HSkMC (human skeletal muscle cells), the cytotoxicity call was “inactive”. In addition, the growth inhibition call with S. aureus RN4220 was “inactive”.
Consider `C[C@H](CO)N1C[C@H](C)[C@@H](CN(C)S(=O)(=O)c2ccc(F)cc2)Oc2ccc(NC(=O)C3CC3)cc2C1=O`, for which the cytotoxicity call with HSkMC is “inactive”. Also, in the assay on S. aureus RN4220, the growth inhibition call is “inactive”.
For the compound `C[C@@H]1CN([C@@H](C)CO)C(=O)c2cc(-c3cccnc3)cnc2O[C@H]1CN(C)C(=O)Nc1ccc2c(c1)OCO2`, the cytotoxicity call in the assay with HSkMC is “inactive”. For the same compound, in the assay with S. aureus RN4220, the growth inhibition call is “inactive”.
